{"source": "PubChem BioAssay AID268", "about": "(DTP/NCI, 2004)", "system": "CD2F1 mice, P1798 lymphosarcoma sc, tumor weight T/C", "assay": "NCI In Vivo Anticancer Drug Screen. Data for tumor model P1798 Lymphosarcoma (subcutaneous) in CD2F1 (CDF1) mice", "details": "endpoint: mean tumor weight, higher = larger tumour", "protocol": "The antitumor activity of compounds was measured in mice bearing transplantable tumors. Survival or tumor size were measured and the results are expressed as the measurement made in the treated group (T) divided by the measurement made in the vehicle treated control group (C). The tumor model used in this assay is P1798 Lymphosarcoma (subcutaneous) in CD2F1 (CDF1) mice", "key": {"[1]": {"details": "dose: 25.0 mg/kg/injection, schedule: Q01DX010 (ip), vehicle: saline"}, "[2]": {"details": "dose: 31.3 mg/kg/injection, schedule: Q01DX010 (ip), vehicle: saline"}, "[3]": {"details": "dose: 50.0 mg/kg/injection, schedule: Q01DX010 (ip), vehicle: saline"}, "[4]": {"details": "dose: 8.0 mg/kg/injection, schedule: Q01DX010 (ip), vehicle: saline"}, "[5]": {"details": "dose: 5.0 mg/kg/injection, schedule: Q01DX010 (ip), vehicle: saline"}, "[6]": {"details": "dose: 62.5 mg/kg/injection, schedule: Q01DX010 (ip), vehicle: saline"}, "[7]": {"details": "dose: 0.5 mg/kg/injection, schedule: Q01DX010 (ip), vehicle: saline"}}, "note": "Certain results were filed several times, with different values. Only these are listed. There may be further records. Values that stand side by side are repeated measurements across runs, samples, wells, individuals or studies.", "data": [{"molecule": "CCCNc1ncnc2c1cnn2C", "values": [{"measurement": "T/C", "setting": "[1]", "result": "69 % of control and 100 % of control"}]}, {"molecule": "CC(CCC(C)OS(C)(=O)=O)OS(C)(=O)=O", "note": "(stereo not drawn)", "values": [{"measurement": "T/C", "setting": "dose: 16.0 mg/kg/injection, schedule: Q01DX010 (ip), vehicle: saline", "result": "28 % of control and 67 % of control"}]}, {"molecule": "C[C@]12CC[C@H](O)C[C@@H]1CC[C@@H]1[C@@H]2C(=O)C[C@]2(C)C3=CC(=O)O[C@H]3C[C@@H]12", "values": [{"measurement": "T/C", "setting": "dose: 5.0 mg/kg/injection, schedule: Q01DX010 (sc), vehicle: steriod suspending solution", "result": "57 % of control and 113 % of control"}]}, {"molecule": "CCn1cnc2c(=S)nc[nH]c21", "values": [{"measurement": "T/C", "setting": "dose: 15.6 mg/kg/injection, schedule: Q01DX010 (ip), vehicle: saline", "result": "94 % of control and 163 % of control"}, {"measurement": "T/C", "setting": "[2]", "result": "59 % of control and 94 % of control"}]}, {"molecule": "C[C@]12C[C@H](O)[C@H]3[C@@H](CCC4=CC(=O)CC[C@@]43C)[C@@H]1CC[C@@H]2C(=O)CO", "values": [{"measurement": "T/C", "setting": "dose: 12.5 mg/kg/injection, schedule: Q01DX010 (sc), vehicle: steriod suspending solution", "result": "77 % of control and 106 % of control"}]}, {"molecule": "COc1ccc2[nH]c3c(C)c4ccncc4c(C)c3c2c1", "values": [{"measurement": "T/C", "setting": "dose: 3.13 mg/kg/injection, schedule: Q01DX010 (ip), vehicle: saline", "result": "36 % of control and 99 % of control"}]}, {"molecule": "c1ccc(CSc2ncnc3nc[nH]c23)cc1", "values": [{"measurement": "T/C", "setting": "[3]", "result": "60 % of control and 88 % of control"}]}, {"molecule": "S=c1nc[nH]c2nc[nH]c12", "values": [{"measurement": "T/C", "setting": "dose: 20.0 mg/kg/injection, schedule: Q01DX010 (ip), vehicle: alkali diluted with saline", "result": "49 % of control and 100 % of control"}, {"measurement": "T/C", "setting": "dose: 40.0 mg/kg/injection, schedule: Q01DX010 (ip), vehicle: alkali diluted with saline", "result": "76 % of control and 108 % of control"}]}, {"molecule": "OC(CBr)C(O)C(O)C(O)CBr", "note": "(stereo not drawn)", "values": [{"measurement": "T/C", "setting": "dose: 100.0 mg/kg/injection, schedule: Q01DX010 (ip), vehicle: saline", "result": "47 % of control and 87 % of control"}, {"measurement": "T/C", "setting": "dose: 200.0 mg/kg/injection, schedule: Q01DX010 (ip), vehicle: saline", "result": "54 % of control and 89 % of control"}]}, {"molecule": "c1ccc(CNc2ncnc3[nH]ncc23)cc1", "values": [{"measurement": "T/C", "setting": "[4]", "result": "81 % of control and 118 % of control"}]}, {"molecule": "O=C(NCCCCC(NC(=O)OCc1ccccc1)C(=O)NCCCCCCNCCCCCCNC(=O)C(CCCCNC(=O)OCc1ccccc1)NC(=O)OCc1ccccc1)OCc1ccccc1", "note": "(stereo not drawn)", "values": [{"measurement": "T/C", "setting": "[3]", "result": "82 % of control and 120 % of control"}]}, {"molecule": "CN(C)c1nc(N(C)C)nc(N(C)C)n1", "values": [{"measurement": "T/C", "setting": "dose: 37.5 mg/kg/injection, schedule: Q01DX010 (ip), vehicle: saline", "result": "64 % of control and 103 % of control"}]}, {"molecule": "Nc1ncnc2[nH]ncc12", "values": [{"measurement": "T/C", "setting": "dose: 6.0 mg/kg/injection, schedule: Q01DX010 (ip), vehicle: saline", "result": "62 % of control and 90 % of control"}]}, {"molecule": "S=P(N1CCOCC1)(N1CC1)N1CC1", "values": [{"measurement": "T/C", "setting": "dose: 2.5 mg/kg/injection, schedule: Q01DX010 (ip), vehicle: saline", "result": "62 % of control and 100 % of control"}, {"measurement": "T/C", "setting": "[5]", "result": "56 % of control and 98 % of control"}]}, {"molecule": "OCC1OC(n2cnc3c(Cl)ncnc32)C(O)C1O", "note": "(stereo not drawn)", "values": [{"measurement": "T/C", "setting": "[6]", "result": "55 % of control and 103 % of control"}, {"measurement": "T/C", "setting": "dose: 125.0 mg/kg/injection, schedule: Q01DX010 (ip), vehicle: saline", "result": "60 % of control and 86 % of control"}, {"measurement": "T/C", "setting": "dose: 500.0 mg/kg/injection, schedule: Q01DX010 (ip), vehicle: saline", "result": "70 % of control and 118 % of control"}]}, {"molecule": "CS(=O)(=O)OCCCCOS(C)(=O)=O", "values": [{"measurement": "T/C", "setting": "dose: 12.5 mg/kg/injection, schedule: Q01DX010 (ip), vehicle: saline", "result": "73 % of control and 105 % of control"}, {"measurement": "T/C", "setting": "[1]", "result": "65 % of control and 94 % of control"}]}, {"molecule": "CS(=O)(=O)OCCN(CCOS(C)(=O)=O)c1ccc(N=O)cc1", "values": [{"measurement": "T/C", "setting": "[7]", "result": "56 % of control and 90 % of control"}]}, {"molecule": "C[C@H]1C(=O)O[C@@H]2CCN3CC=C(COC(=O)[C@](C)(O)[C@@]1(C)O)[C@H]23", "values": [{"measurement": "T/C", "setting": "[1]", "result": "74 % of control and 101 % of control"}]}, {"molecule": "CC(=O)OC(C)(C)/C=C/C(=O)[C@](C)(O)[C@H]1[C@H](O)C[C@@]2(C)[C@@H]3CC=C4[C@@H](C[C@H](O)C(=O)C4(C)C)[C@]3(C)C(=O)C[C@]12C", "values": [{"measurement": "T/C", "setting": "dose: 0.4 mg/kg/injection, schedule: Q01DX011 (ip), vehicle: carboxymethylcellulose (CMC)", "result": "51 % of control and 114 % of control"}]}, {"molecule": "Cc1nc(N2CC2)nc(N2CC2)c1[N+](=O)[O-]", "values": [{"measurement": "T/C", "setting": "[5]", "result": "39 % of control and 72 % of control"}]}, {"molecule": "C1CN1c1nc(N2CC2)nc(N2CC2)n1", "values": [{"measurement": "T/C", "setting": "dose: 0.13 mg/kg/injection, schedule: Q01DX010 (ip), vehicle: saline", "result": "49 % of control and 100 % of control"}, {"measurement": "T/C", "setting": "dose: 0.25 mg/kg/injection, schedule: Q01DX010 (ip), vehicle: saline", "result": "44 % of control and 90 % of control"}]}, {"molecule": "Nc1nc(SCc2ccccc2)c2[nH]cnc2n1", "values": [{"measurement": "T/C", "setting": "[4]", "result": "88 % of control and 180 % of control"}, {"measurement": "T/C", "setting": "dose: 32.0 mg/kg/injection, schedule: Q01DX010 (ip), vehicle: saline", "result": "82 % of control and 169 % of control"}]}, {"molecule": "CC[n+]1c(-c2ccccc2)c2cc(N)ccc2c2ccc(N)cc21", "values": [{"measurement": "T/C", "setting": "[5]", "result": "37 % of control and 116 % of control"}]}, {"molecule": "CN(C)c1ccc(/C=C/c2ccnc3ccccc23)cc1", "values": [{"measurement": "T/C", "setting": "dose: 10.0 mg/kg/injection, schedule: Q01DX010 (ip), vehicle: saline", "result": "38 % of control and 81 % of control"}]}, {"molecule": "C[C@]12CC[C@H](OC3OC(CO)C(O)C(O)C3O)C[C@H]1CC[C@@H]1[C@@H]2CC[C@]2(C)[C@@H](C3=CCOC3=O)CC[C@]12O", "note": "(stereo partly drawn)", "values": [{"measurement": "T/C", "setting": "[7]", "result": "26 % of control and 76 % of control"}]}, {"molecule": "CCCSc1ncnc2nc[nH]c12", "values": [{"measurement": "T/C", "setting": "[2]", "result": "33 % of control and 117 % of control"}, {"measurement": "T/C", "setting": "[6]", "result": "14 % of control and 93 % of control"}]}, {"molecule": "COc1ccc2c(c1OC)C(=O)O[C@@H]2[C@H]1c2c(cc3c(c2OC)OCO3)CCN1C", "values": [{"measurement": "T/C", "setting": "[6]", "result": "61 % of control and 87 % of control"}]}, {"molecule": "Clc1ncnc2nc[nH]c12", "values": [{"measurement": "T/C", "setting": "dose: 60.0 mg/kg/injection, schedule: Q01DX010 (ip), vehicle: saline", "result": "63 % of control and 117 % of control"}]}]}
